Data as given in PMC12040169 (PLOS Biology, 2025).
The list shows a part of the results.

Test system: T1, C. trachomatis L2/434/Bu expressing GFP (CTL2-GFP)
T1 construct: L2/434/Bu GFP intracellular growth in HeLa cells
Design: species or system HeLa; C. trachomatis total inclusion area by high-content imaging, normalised to DMSO
Settings: total inclusion area; 28.5 h, 10 µM; inhibitor
Outline: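 Post-fluorescence-read fixation, DNA staining with Hoechst and high-content imaging; GFP inclusion area and number per well, and nuclei counts, used as proxies for bacterial growth and host viability.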

| Compound | % of control remaining |
| --- | --- |
| Fc1cccc(Sc2nnnn2-c2ccccc2)c1 [CBK002906] | 95.3325 |
| O=C(Nc1ccc(Cl)c(Cl)c1)c1cnc2n(c1=O)CCS2 [CBK287381] | 84.7311 |
| CCOC(=O)c1cnn(C)c1-c1ccc(F)cc1OC [CBK149233] | 104.206 |
| Cc1cnccc1CN1CCC[C@@H]2CN(C(=O)CC(C)C)C[C@@H]21 [CBK285289] | 74.3872 |
| Cc1ccn2c(C3CCN(CCc4ccccc4)CC3)nc(-c3ccccc3)c2c1 [CBK035490] | 99.6103 |
| COCCCNCCSc1ccc(Cl)cc1 [CBK265093] | 99.8412 |
| CN1CCCc2cc(-c3cncn3CC(=O)NC(C)(C)C)ccc21 [CBK281700] | 100.746 |
| O=C(Nc1ccc2ncsc2c1)C1COc2ccccc2O1 (centres unmarked) [CBK287750] | 82.5319 |
| COc1ccc2[nH]c3c(c2c1)CCOC31CCN(C(=O)CC(C)CC(=O)O)CC1 (centres unmarked) [CBK047197] | 86.5624 |
| COC(=O)c1sc(-c2ccsc2)cc1N [CBK006256] | 95.046 |
| Cc1ccc([N+](=O)[O-])cc1NC(=O)CSc1nnc(-c2ccco2)o1 [CBK268378] | 104.845 |
| Cc1cc(C)n(C2CN(CC(=O)NCc3ccccn3)C2)n1 [CBK306238] | 100.857 |
| CC(C)(O)c1cc(CC2(NCC3CCCCC3)COC2)no1 [CBK289656] | 121.09 |
| COc1cc(NC(=O)C2CCCN2)ccc1-n1cccc1 (centres unmarked) [CBK282500] | 100.254 |
| CC(=O)NCCSc1nccnc1N1CCCC1 [CBK105619] | 94.3156 |
| O=C(NCCn1nc2c(cc1=O)CCCCC2)c1cccs1 [CBK283277] | 93.746 |
| CC1CCN(C(=O)c2cccc(Cn3cc(Br)cn3)c2)CC1 [CBK058482] | 101.242 |
| Cc1ccc(S(=O)(=O)CC(=O)N2CCCC3(CCN(C(=O)c4cc(F)c(F)cc4F)C3)C2)cc1 (centres unmarked) [CBK131558] | 0.1099 |
| CC(O)C(=O)NS(=O)(=O)c1ccccc1 (centres unmarked) [CBK038300] | 99.2712 |
| CCN1C(=O)C2(CC(=O)N(CCCN(C)C(=O)c3ccco3)C2=O)c2cc(C)ccc21 (centres unmarked) [CBK075141] | 81.6559 |
| CC(C)N(C(=O)Cn1c(C(F)F)cc2cccnc21)C(C)C [CBK285009] | 115.427 |

| Compound | % of control remaining |
| --- | --- |
| CCOC(=O)N1CCN(Cc2ccc(OCc3nccn3C)cc2)CC1 [CBK305413] | 42.8095 |
| CC(=O)N1CCC(C(=O)NC(=O)Nc2cccc(C)c2)CC1 [CBK034854] | 60.2983 |
| CN(C)C(=O)CN1CCC2(CC1)CN(S(C)(=O)=O)c1ccccc12 [CBK126686] | 91.8096 |
| c1ccc2cc(-c3cn4ccnc4c(N4CCN(c5ccncc5)CC4)n3)ccc2c1 [CBK066369] | 87.3335 |
| O=C(Nc1cccnc1N1CCNCC1)c1ccccn1 [CBK029425T] | 107.065 |
| CC(C)C1CC(CCNCc2ccc(N(C)C)cc2)(c2ccccc2)CCO1 (centres unmarked) [CBK266210] | 90.1369 |
| CCOC(=O)c1ccc(NC(=O)N2CCC3(CC2)NC(=O)Cc2ccccc23)cc1 [CBK047362] | 83.2965 |
| O=C(Cc1cccc2ccccc12)NC(NC(=S)Nc1ccccc1Br)C(Cl)(Cl)Cl (centres unmarked) [CBK261094] | 70.2223 |
| CCCC(=O)Nc1ccccc1OC1CCNCC1 [CBK045902T] | 73.376 |
| CC1=CC(C)C(C(=O)O)C(C(=O)Nc2ccccc2)C1 (centres unmarked) [CBK286851] | 74.9062 |
| c1ccc(C(Nc2cnccn2)C2CC2)cc1 (centres unmarked) [CBK304145] | 67.4677 |
| COc1ccc(-c2cn3ccnc3c(Nc3ccc(N4CCOCC4)cc3)n2)cc1 [CBK066265] | 104.112 |
| O=C(Nc1ccnn1Cc1ccccc1)C1CC(c2cccc(F)c2)=NO1 (centres unmarked) [CBK297772] | 99.889 |
| COC(=O)Cn1c(C(C)(C)C)cn2c3c(=O)n(C)c(=O)n(C)c3nc12 [CBK307555] | 39.1969 |
| COCc1nnc(Sc2nc3ccccc3nc2NC(C)C)s1 [CBK115253] | 110.503 |
| NC(=O)c1ccc(-n2cc(-c3ccc(Cl)cc3)nn2)cc1 [CBK113046] | 96.2269 |
| CCCC(=O)c1ccc(S(=O)(=O)N2CCN(Cc3ccc(C(C)=O)cc3)CC2)cc1 [CBK063159] | 64.7029 |
| Cc1ccc(-c2ccc(/C=C(\C#N)c3nc(-c4ccco4)cs3)o2)c([N+](=O)[O-])c1 [CBK266685] | 120.552 |
| COc1ccccc1C1(O)CCN(CC(O)c2ccc3c(c2)OCCO3)CC1 (centres unmarked) [CBK286482] | 76.1112 |
| O=C(Cn1cccn1)NC(Cc1ccsc1)c1cccnc1 (centres unmarked) [CBK285396] | 101.58 |
